In PubChem BioAssay (NCI):
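Grown in 96-well plates, cells were treated for 48 hours with each compound at five concentrations. Insufficient inhibition: endpoint recorded as highest concentration tested. GI50 marks 50% less growth. The concentration for full growth arrest is given as TGI.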

The compounds below were run on NCI-H322M lung (assay: inhibition of tumour cell growth, NCI panel, 48 h).

Row | Compound | GI50 [µM] | TGI [µM]
1 | CCCCCCNC(=O)Oc1ccc(/C(=C(\C)c2ccc(Cl)cc2)c2ccc(OCCN(C)C)cc2)cc1 | 3.84 | 16.5
2 | O=C(/C=C/c1cc(Cl)ccc1Cl)Nc1ncc(Cc2ccc(Cl)cc2)s1 | 0.485 | 30
3 | O=C(CSc1nc2sc3c(c2c(=O)n1-c1ccc(Cl)cc1)CCCC3)NNC(=O)Nc1cccc(C(F)(F)F)c1 | 3.96 | > 100
